# A lower IC50 marks a more sensitive line; a fit beyond the top or the lowest dose is shown as a bound at that dose. AUC is the area under the same curve over the 256-fold range up to the top dose, as a fraction: 1 means no effect, lower means more sensitive. Where the top dose is marked as inferred, it comes from the curve model; the source does not state it. For some of these results: Where an entry number is given, a second screen of the drug exists; the two often differ.
# Assays:
# Experiment in all cases: Viability of human cancer cell lines after 72 h of drug (GDSC screen)
# Shikonin = compound: CC(C)=CC[C@@H](O)C1=CC(=O)c2c(O)ccc(O)c2C1=O [Shikonin]; conditions: top dose 16 µM; top dose inferred
# Description: (§1)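 Human cancer cell lines in 384-well plates, medium with 10% serum, drug for 72 h over a 256-fold dose range (nine 2-fold or five 4-fold steps up to the top dose). Adherent lines were fixed and stained with the nucleic acid dye Syto60, suspension lines read with resazurin; signal relative to control wells, capped at 0 and 100%. One two-parameter sigmoid per drug and line, fitted in a mixed model over all curves with the slope shared within a line.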
# CGP-082996 (CINK4) = compound: CCNc1cc(NC2CCC(O)CC2)nc(Nc2ccc3c(ccn3Cc3ccccc3)c2)n1 [CGP-082996 (CINK4)]; conditions: top dose 5.12 µM; top dose inferred
# Description: as §1
# HG-5-113-01 = compound: CNC(=O)c1ccc(Nc2cc(Nc3ccccc3S(=O)(=O)C(C)C)c3cc[nH]c3n2)nc1 [HG-5-113-01]; conditions: top dose 10 µM; top dose inferred
# Description: as §1
# A-770041 = compound: COc1cc(-c2nn([C@H]3CC[C@H](N4CCN(C(C)=O)CC4)CC3)c3ncnc(N)c23)ccc1NC(=O)c1cc2ccccc2n1C [A-770041]; conditions: top dose 5.12 µM; top dose inferred
# Description: as §1
# BMS-536924 = compound: Cc1cc(N2CCOCC2)cc2[nH]c(-c3c(NC[C@@H](O)c4cccc(Cl)c4)cc[nH]c3=O)nc12 [BMS-536924]
# Description: as §1
# BIRB 0796 = compound: Cc1ccc(-n2nc(C(C)(C)C)cc2NC(=O)Nc2ccc(OCCN3CCOCC3)c3ccccc23)cc1 [BIRB 0796]; conditions: top dose 10 µM; top dose inferred
# Description: as §1
# SB-525334 = compound: Cc1cccc(-c2[nH]c(C(C)(C)C)nc2-c2ccc3nccnc3c2)n1 [SB-525334]; conditions: top dose 20 µM; top dose inferred
# Description: as §1
# VX-702 = compound: NC(=O)c1ccc(N(C(N)=O)c2c(F)cccc2F)nc1-c1ccc(F)cc1F [VX-702]; conditions: top dose 2 µM; top dose inferred
# Description: as §1
# Olaparib = compound: O=C(c1cc(Cc2n[nH]c(=O)c3ccccc23)ccc1F)N1CCN(C(=O)C2CC2)CC1 [Olaparib]
# Description: as §1
# XMD8-85 = compound: COc1cc(N2CCN(C)CC2)ccc1Nc1ncc2c(n1)N(C)c1ccccc1C(=O)N2C [XMD8-85]; conditions: top dose 8 µM; top dose inferred
# Description: as §1
# Wee1 inhibitor 681640 = compound: O=C1NC(=O)c2c1c(-c1ccccc1Cl)cc1[nH]c3ccc(O)cc3c21 [Wee1 inhibitor 681640]; conditions: top dose 2 µM; top dose inferred
# Description: as §1
# [1] = top dose 4 µM, screen: GDSC drug entry 1091, top dose inferred
# [2] = top dose 5.12 µM, screen: GDSC drug entry 62
# [3] = top dose 5 µM, screen: GDSC drug entry 1017, top dose inferred
# [4] = top dose 10 µM, screen: GDSC drug entry 1495
Cell Line,AUC (Shikonin),IC50 (Shikonin) [µM],AUC (CGP-082996 (CINK4)),IC50 (CGP-082996 (CINK4)) [µM],AUC (HG-5-113-01),IC50 (HG-5-113-01) [µM],AUC (A-770041),IC50 (A-770041) [µM],AUC (BMS-536924; [1]),IC50 (BMS-536924; [1]) [µM],AUC (BMS-536924; [2]),IC50 (BMS-536924; [2]) [µM],AUC (BIRB 0796),IC50 (BIRB 0796) [µM],AUC (SB-525334),IC50 (SB-525334) [µM],AUC (VX-702),IC50 (VX-702) [µM],AUC (Olaparib; [3]),IC50 (Olaparib; [3]) [µM],AUC (Olaparib; [4]),IC50 (Olaparib; [4]) [µM],AUC (XMD8-85),IC50 (XMD8-85) [µM],AUC (Wee1 inhibitor 681640),IC50 (Wee1 inhibitor 681640) [µM]
"A704 (kidney, adherent)",0.705,3.7,0.973,> 5.12,0.82,5.53,0.698,1.13,0.903,> 4,0.711,1.23,0.982,> 10,0.979,> 20,0.989,> 2,0.988,> 5,0.988,> 10,,,,
"D-392MG (glioma, adherent)",0.508,1.06,,,0.854,> 10,,,0.949,> 4,,,0.973,> 10,0.861,> 20,0.977,> 2,0.933,> 5,0.933,> 10,0.784,4.78,0.898,> 2
"D-542MG (glioma, adherent)",0.455,0.731,,,0.864,> 10,,,0.978,> 4,,,0.903,> 10,0.698,5.14,0.984,> 2,0.984,> 5,0.982,> 10,0.665,1.61,0.984,> 2
"ECC12 (stomach, suspension)",0.656,3.05,,,,,,,,,,,,,,,,,,,,,0.826,6.61,,
"EKVX (lung adenocarcinoma, adherent)",0.721,8.94,0.956,> 5.12,0.791,> 10,0.872,> 5.12,0.755,3.34,0.721,2.87,0.913,> 10,0.953,> 20,0.952,> 2,0.945,> 5,0.964,> 10,,,,
"EW-12 (Ewing sarcoma, suspension)",,,0.965,> 5.12,,,0.976,> 5.12,,,0.978,> 5.12,,,,,,,,,,,0.977,> 8,,
"GAK (melanoma, adherent)",0.524,1.16,0.916,> 5.12,0.845,6.73,0.95,> 5.12,0.977,> 4,0.973,> 5.12,,,0.914,> 20,0.975,> 2,,,,,,,0.942,> 2
"HCC2998 (large intestine, adherent)",0.783,6.56,,,0.835,6.3,,,0.924,> 4,,,,,0.984,> 20,0.986,> 2,0.981,> 5,,,0.804,3.87,,
"IA-LM (large cell lung carcinoma, adherent)",0.621,2.25,0.896,> 5.12,0.795,5.31,0.881,> 5.12,0.961,> 4,0.885,> 5.12,0.984,> 10,0.951,> 20,0.972,> 2,0.984,> 5,0.956,> 10,,,0.98,> 2
"JURL-MK1 (chronic myeloid leukaemia, suspension)",0.622,2.17,,,0.747,3.19,,,0.983,> 4,,,0.916,> 10,0.957,> 20,0.886,> 2,0.901,> 5,0.961,> 10,0.964,> 8,0.889,> 2
"KLE (endometrium, adherent)",0.464,0.754,0.834,> 5.12,,,0.683,1.4,0.877,> 4,0.784,,0.939,> 10,0.885,> 20,0.975,> 2,0.977,> 5,0.95,> 10,,,0.96,> 2
"LXF-289 (lung adenocarcinoma, adherent)",0.641,2.43,0.849,3.74,0.6,1.17,0.641,0.778,0.944,> 4,0.67,0.946,0.838,6.59,0.984,> 20,0.967,> 2,0.962,> 5,0.951,> 10,,,0.965,> 2
"MFM-223 (breast, adherent)",0.471,0.834,0.987,> 5.12,0.688,2.09,0.988,> 5.12,0.866,3.51,0.988,> 5.12,0.914,> 10,0.938,> 20,0.989,> 2,0.974,> 5,0.936,> 10,,,0.987,> 2
"NB12 (neuroblastoma, adherent)",0.447,0.682,,,,,,,0.844,> 4,,,0.967,> 10,0.904,> 20,0.978,> 2,0.958,> 5,0.942,> 10,0.912,> 8,0.953,> 2

# From the supplement of paper PMC4967469
